Assay results published in patent USRE38425E1, “Semicarbazones having CNS activity and pharmaceutical preparations containing same” (University of Saskatchewan Technologies, Inc., priority 1995, dated 2004).
Where two headings read alike, the source gives them in different places.

Legend:
mice [1] = assay: MES screen after intraperitoneal injection in mice; format: in vivo; conditions: doses of 30, 100 and 300 mg/kg
mice [2] = conditions: intraperitoneal injection in mice, doses of 30, 100 and 300 mg/kg
mice [3] = conditions: intraperitoneal injection in mice, doses of 30, 100 and 300 mg/kg; remark: listed apart in the source

| Structure (SMILES) | MES screen 0.5 h: minimum dose whereby bioactivity was demonstrated in half or more of the mice (mice [1]; 0.5 h) | MES screen 4 h: minimum dose whereby bioactivity was demonstrated in half or more of the mice (mice [1]; 4 h) | acPTZ screen 0.5 h: minimum dose whereby bioactivity was demonstrated in half or more of the mice (mice [2]; 0.5 h) | acPTZ screen 4 h: minimum dose whereby bioactivity was demonstrated in half or more of the mice (mice [2]; 4 h) | toxicity screen 0.5 h: minimum dose whereby bioactivity was demonstrated in half or more of the mice (mice [3]; 0.5 h) | toxicity screen 4 h: minimum dose whereby bioactivity was demonstrated in half or more of the mice (mice [3]; 4 h) | MES screen: minimum dose whereby bioactivity was demonstrated in half or more of the mice (mice [1]; 0.5 h) | MES screen: minimum dose whereby bioactivity was demonstrated in half or more of the mice (mice [1]; 4 h) | acPTZ screen: minimum dose whereby bioactivity was demonstrated in half or more of the mice (mice [2]; 0.5 h) | toxicity screen: minimum dose whereby bioactivity was demonstrated in half or more of the mice (mice [3]; 0.5 h) | toxicity screen: minimum dose whereby bioactivity was demonstrated in half or more of the mice (mice [3]; 4 h) | acPTZ screen: minimum dose whereby bioactivity was demonstrated in half or more of the mice (mice [2]; 4 h) |
| --- | --- | --- | --- | --- | --- | --- | --- | --- | --- | --- | --- | --- |
| Cc1ccccc1Oc1ccc(C=NNC(N)=O)cc1 [Compound 5n] | 30 mg/kg | 100 mg/kg | 100 mg/kg | 100 mg/kg | 300 mg/kg | 300 mg/kg |  |  |  |  |  |  |
| CCc1ccc(Oc2ccc(C=NNC(N)=O)cc2)cc1 [Compound 5p] | 30 mg/kg | 30 mg/kg | 300 mg/kg |  | 300 mg/kg | 100 mg/kg |  |  |  |  |  |  |
| CCCc1ccc(Oc2ccc(C=NNC(N)=O)cc2)cc1 [Compound 5q] | 100 mg/kg | 100 mg/kg | 300 mg/kg |  |  | 300 mg/kg |  |  |  |  |  |  |
| CCCCc1ccc(Oc2ccc(C=NNC(N)=O)cc2)cc1 [Compound 5r] | 100 mg/kg | 30 mg/kg |  | 100 mg/kg | 300 mg/kg | 100 mg/kg |  |  |  |  |  |  |
| CC(C)(C)c1ccc(Oc2ccc(C=NNC(N)=O)cc2)cc1 [Compound 5s] | 100 mg/kg | 30 mg/kg |  | 100 mg/kg | 100 mg/kg | 100 mg/kg |  |  |  |  |  |  |
| CCCCOc1ccc(Oc2ccc(C=NNC(N)=O)cc2)cc1 [Compound 5u] | 300 mg/kg | 100 mg/kg | 300 mg/kg | 300 mg/kg | 300 mg/kg | 300 mg/kg |  |  |  |  |  |  |
| CC(=NNC(N)=O)c1ccc(Oc2ccc(F)cc2)cc1 [Compound 13b] |  |  |  |  |  |  | 30 mg/kg | 30 mg/kg | 100 mg/kg | 300 mg/kg | 100 mg/kg |  |
| CC(=NNC(N)=O)c1ccc(Oc2ccc(Cl)cc2)cc1 [Compound 13c] |  |  |  |  |  |  | 30 mg/kg | 30 mg/kg |  | 30 mg/kg | 100 mg/kg | 30 mg/kg |
| CC(=NNC(N)=O)c1ccc(Oc2ccc(Br)cc2)cc1 [Compound 13d] |  |  |  |  |  |  | 30 mg/kg | 30 mg/kg | 300 mg/kg | 300 mg/kg | 100 mg/kg |  |
| CCC(=NNC(N)=O)c1ccc(Oc2ccc(F)cc2)cc1 [Compound 13f] |  |  |  |  |  |  | 30 mg/kg | 30 mg/kg | 100 mg/kg | 300 mg/kg | 100 mg/kg |  |
| CCC(=NNC(N)=O)c1ccc(Oc2ccc(Cl)cc2)cc1 [Compound 13g] |  |  |  |  |  |  | 30 mg/kg |  | 300 mg/kg | 300 mg/kg | 100 mg/kg |  |
| CCC(=NNC(N)=O)c1ccc(Oc2ccc(Br)cc2)cc1 [Compound 13h] |  |  |  |  |  |  | 30 mg/kg | 30 mg/kg | 100 mg/kg | 300 mg/kg | 100 mg/kg |  |
| NC(=O)NN=Cc1ccc(OS(=O)(=O)c2ccccc2)cc1 [Compound 15f] |  |  |  |  |  |  | 30 mg/kg | 30 mg/kg | 30 mg/kg | 300 mg/kg | 300 mg/kg |  |
| NC(=O)NN=Cc1ccc(Sc2ccc(F)cc2)cc1 [Compound 16a] |  |  |  |  |  |  | 30 mg/kg | 30 mg/kg | 30 mg/kg | 300 mg/kg | 100 mg/kg |  |
| NC(=O)NN=Cc1ccc(Sc2ccc(Cl)cc2)cc1 [Compound 16b] |  |  |  |  |  |  | 100 mg/kg | 30 mg/kg | 300 mg/kg |  | 100 mg/kg |  |
| NC(=O)NN=Cc1ccc(Sc2ccc(Br)cc2)cc1 [Compound 16c] |  |  |  |  |  |  | 100 mg/kg | 30 mg/kg |  |  | 300 mg/kg | 300 mg/kg |
